Results on 72 sequences are retold here after publication PMC10726135.

Some of the results follow. At the low end of the ranking the order means little. The protein was read in a cell extract, so binding may be indirect.

The target in the assay is T1, HNF4alpha2 (COS-7 nuclear extract) (UniProt P41235).
T1 sequence: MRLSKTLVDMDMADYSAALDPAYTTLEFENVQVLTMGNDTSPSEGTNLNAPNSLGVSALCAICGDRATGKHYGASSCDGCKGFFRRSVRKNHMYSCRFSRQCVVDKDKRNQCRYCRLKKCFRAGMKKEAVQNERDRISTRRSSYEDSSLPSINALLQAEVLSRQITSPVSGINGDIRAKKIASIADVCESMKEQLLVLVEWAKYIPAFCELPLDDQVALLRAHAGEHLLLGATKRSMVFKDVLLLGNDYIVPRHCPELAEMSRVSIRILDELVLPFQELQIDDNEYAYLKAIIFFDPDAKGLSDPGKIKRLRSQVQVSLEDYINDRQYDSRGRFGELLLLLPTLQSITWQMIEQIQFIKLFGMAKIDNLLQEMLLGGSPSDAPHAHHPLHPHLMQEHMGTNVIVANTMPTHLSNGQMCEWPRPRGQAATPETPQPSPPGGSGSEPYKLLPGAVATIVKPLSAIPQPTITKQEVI
Put plainly: protein-binding microarray. Particulars: COS-7 nuclear extract on double-stranded Agilent 4x180k PBM; binding buffer, salt, pH and temperature not given; high values mean tight binding; double strand, one strand shown; sequences stand for … in …GCCTAGGGAGATTAGAGTATCGGTCGA
For TATGTCAGGCTCAGGGACCCAGCGGAATGC, the binding signal (log2 normalized intensity) is -1.13.
Then CACCAAGGCCGGAAAAGATTAGATTGCTCA, with -1.06; and TTTATCTCCTCCCCTTGAGACTTTAATCTC, with 2.33.
Then AGTCAGTTCCCCTGCGGACTCTGGAACCAT, with 3.16.
Then TGTGGTAATAAGTTGGTGGACGCTGGGGAA, with 0.861.
For ACTAAATGCAGCCTTGGGCAAGTTACTTAA, the binding signal (log2 normalized intensity) was -1.11.
Then AGATGACCTTTGCCCTTGACTTTTTGTGGG, with 7.08; and TGGTTGCTAAGAGACAGCTCCACAGCTGGA, with -1.12; and ATGACCCAAACTTCACAAAAATGAGTGCAA, with -0.838.
Then ACTAAATCTCTCCTAGAGAAAGGGGCTTAG, with -1.13; and ATAATTAGGTCTTTTGGTGAGTCTTTGCCC, with 1.68; and CCGGGGCCTGGGCGCGCCTGCCCTTCGCTC, with 2.22.
Then AAATCTGATCTTTCCTCTAAGTGCCCAAAT, with 0.727; and GGACACAGTTCAGGCCATCACACTCCTACC, with -1.07.
TACCAGCTGGGGTTTTACCAGGCACGCATG: the binding signal (log2 normalized intensity) was -0.996.
Then GTGTGCTCGAGGTGGACTTTCCCCCCTCAC, with 6.09; and CTCCTCTGCCTCCAGCTGTTGGTGACTGAC, with 0.79.
Consider GCTCCCATCCCCCCAAAGGCTCTCTGTTGA, for which the binding signal (log2 normalized intensity) was found to be 3.99.
Then CTCATTCCTATTCGGTGCTGACCTTTGTTC, with 7.77; and CCCTTGACCAAGCAGCTGTTTGACCAAAGC, with -1.08; and TCCGCTTGATGCCTGTTGCTCAGAATTACT, with -1.21.
For TATGGCCCACAAAGCCTAAAATATTCACTA, the binding signal (log2 normalized intensity) is -1.14.
Then AAAGAATTCGTCCAGGGCCGCCCAAGCGAA, with -0.993; and AACAAACAAAAACCAAAAAAACTTAACAGA, with -1.13.
Then GACAGCAGGAGTGGGAGAAAGCTTTGGACT, with 1.77; and GTTATCTCGGGGATGGCATGTCTCTGGTCG, with 1.64; and ACTGTCCTAGGTGCTGAAGATGCAACAGTG, with 0.985.
Then AAAGGAGGAATCTGTGAAGGTCAGGAGCCC, with -0.39; and ATCCACATGTGGGTCCAAAGAACATTGCAT, with 2.22.
On to AACAAGTAAGGAAGACAAGACAAGGAAGTT, for which the binding signal (log2 normalized intensity) is -1.13.
As to CAAAACTGGCAAAACTGGTCAATATCCACA, the binding signal (log2 normalized intensity) is -0.887.
In the case of TGGGGTTCAGCCACACCAAGTCTGGACCTG, the binding signal (log2 normalized intensity) was determined as 1.94.
Then TCTTTGTTCAGAGGGCATGTTGAGTGGAAT, with 2.13; and CAGAAGGGACTAGCCTTATCTCAGATGAGA, with -1.09.
On to TCTAGTCTAGTCCAAACTGCAACCTGATAA, for which the binding signal (log2 normalized intensity) was -1.14.
Then AGGGAGATAGAGAAAGAAAAAGTACACACC, with -1.09; and AGGCAAGATCCGAAGTCTAGGACGTTATCA, with -1.14.
Then TTGGGACAAAGTTTGCCTGGGCTCTAGACA, with -1.05; and CCTCTTCTGGGAAGAGTAGATAAGCAGATC, with -1.2.
Then GTGTTTATGGCAAATTGATATCCTGTCTAT, with 0.807; and CTTACATTTTGCTCTTTGTACCGTTTGAAC, with 3.49.
Consider AGCAGAAACATAGAAAGGAGTACACACCAT, for which the binding signal (log2 normalized intensity) is -1.1.
Then ACATTTCAAAAGCTGTGTGCTCCTGTAGAA, with -1.07.
Then ACATGGTTCACTGATTACTGGATGTATAAT, with 0.79.
Then GGGTCTTTTTGACCTGTATCTTGTGGTGAC, with 2.24.
For the sequence ATGGTCAGTGTTGATAAGAAAGCTGCAGTC, the binding signal (log2 normalized intensity) turned out to be 0.747.
On to TGGACTTTGAGTCATAAGAAACATTTTACA, for which the binding signal (log2 normalized intensity) is 2.86.
Then CTCCCACGTCGCTGCCGCAGATCCCCGCTC, with -1.05.
As for TGAGGACTTTGGTCTTATTACTAAGTGAGA, the binding signal (log2 normalized intensity) came to 2.3.
Then GGGCCGCCTTGGAAAACCCGGCGCGGACAT, with -1.23; and AGACGGGGCTCTCAGAATCTGCCGATCACT, with -1.01.
Then TTCTTAAGATAAGGACTGTTGGACCTCGAA, with 2.44; and TTTGCTATGGCCTTTCTTCATTGTTCGCAT, with 0.0537; and TGCCTCCTTCAAGGATTAGCAGATAAATCT, with -0.904.
Then GGACTTGATGATTGACACTATTATTACTGT, with 1.26; and CGCCTTGCACAAATTTCAGATATCTGAATG, with 0.246; and GATGATTCCCTTATCTTCTCCCCTGCCAAA, with 3.36.
As for GACCTGTTTGTCTTGCTGGGGAGATCAGAG, the binding signal (log2 normalized intensity) was determined as 1.01.
GCCTTTCAGGCAGGAGACGATGGTTTTCCA: the binding signal (log2 normalized intensity) is -1.18.
In the case of ATTTATCTTTCCAGATTGTTCTATTAACCT, the binding signal (log2 normalized intensity) turned out to be 1.61.
Then TTAGTCCATGACGCAAGCGAGTAAGGCCCG, with -1.08; and CTGATTAGCCTTTCCAAAGGAGGCAATGAG, with -1.12.
For CGATTATCTACAGATCTGGAGCCAGCAAGG, the binding signal (log2 normalized intensity) was -1.12.
Then AGGCAATGTCACGTTTATTTCTAACAGCTG, with -0.916.
Then CCTGGAGGGACTTTGTCCCACAGGAGAAGT, with 3.01; and CCACGACAGAATTGACTCTTCGTTTTCTTT, with 1.38.
Then AATGGGTCCGAAGGTCAGCTGACCAACAGA, with 4.28; and ATTTGCAGCAAGGCCCAGGGCAAGGACTCT, with -1.15; and CGCGCGTGTGTGTGTGTGTGTGGTGTGTGT, with 3.49.
AGCGTCAATGCCCCAGAAAGCCAGCAGGGG: the binding signal (log2 normalized intensity) is -1.21.
Then AGGCATGACAGAGTGTCCTGCCCCCTGGAG, with 3.9.
In the case of GCTTGGGCGACGGACGCGCCGCGCCGGGGA, the binding signal (log2 normalized intensity) is -1.3.
